From USRE32992E, “Peptide process for preparation thereof and use thereof” (priority 1978, dated 1989)
Values joined by “and” are separate entries in the source; they are usually repeats but may differ in a detail not shown here. Equal values may be shown once. Part of at least one peptide drawing is inferred or uncertain, most often the ends.

Assays:
[1] = tested on: mouse spleen cells; test: Mitogenic activities for mouse spleen cells (3H-thymidine uptake); assay type: cell-based, Mice, BALB/C strain; details: for 3H-thymidine uptake net cpm: av ± S.E.: 48 hours; for Stimulation Index: Test 1
[2] = tested on: ovalbumin; test: Enhancing activity of cellular immunity: skin reaction to ovalbumin; assay type: in vivo, Guinea pigs; details: skin test day 14, read at 48 hours
[3] = tested on: reticuloendotherial system; test: Blood stream clearance of carbon; assay type: in vivo, Mice (DDY male 5-6 W); details: carbon clearance 24 hours later
Description: 1. Carbon suspension. Rotoring drawing ink (170 mg carbon/ml.) was diluted to 1/5 of the original concentration in saline containing 1% gelatin.
2. 0.1% aqueous sodium carbonate solution.
Mice (DDY male 5-6 W) were injected via the tail vein with a dose of 0.01 ml/g body weight of carbon. Blood samples were taken by means of a pointed capillary pippet calibrated to hold a 50 μl and previously washed in heparin. This was plunged into the retrooribital venous sinus at the nasal angle of the eye. The samples were removed at 3 and to 6 min.
The blood was immediately discharged into 3.0 ml. of the sodium carbonate solution. This hemolyszed the blood and allowed the quantitation of carbon. The samples were then read in a spectrophotometer at 660 nm, the log concentration being obtained from a previously determined standard curve. The clearance value K may be determined by plotting log carbon concentration against time according to the following relationship; [formula] in which T1 and T2 represent the time in min when the sample were withdrawn and C1 and C2 represent the concentrations of carbon in the blood at the time T1 and T2, respectively.
The aqueous solution of the test compound as given was administered subcutaneously to mice. Twenty four hours later, blood stream clearance of carbon was measured. K value obtained with treated mice was compared with that of control mice.

[4] = tested on: ovalbumin; test: Enhancing activity of humoral antibody production: hemagglutination and hemolysin titer; assay type: in vivo, Guinea pigs; details: bled on day 16
[5] = Test 1 (male BALB/C, 13 weeks), 1 μg/ml
[6] = Test 1 (male BALB/C, 13 weeks), 10 μg/ml
[7] = Test 1 (male BALB/C, 13 weeks), 100 μg/ml
[8] = dose 1 μg/site with ovalbumin in FIA
[9] = dose 10 μg/site with ovalbumin in FIA
[10] = dose 100 μg/site with ovalbumin in FIA

CCC(=O)N[C@@H](C)C(=O)N[C@H](CCC(=O)N[C@@H](CCC[C@@H](N)C(=O)O)C(=O)NCC(=O)O)C(=O)O [CH3 CH2 CO] was tested, and the “3H-thymidine uptake net cpm: av ± S.E.” value [1, 5] was 732 ± 28 cpm, the “3H-thymidine uptake net cpm: av ± S.E.” value [1, 6] was 1,474 ± 44 cpm and the “3H-thymidine uptake net cpm: av ± S.E.” value [1, 7] was 2,023 ± 142 cpm. The “Cellular immunity skin reaction (mm diameter, M ± S.E.)” value (from here on “Cellular immunity skin reaction”) [2, 8] was 2.0 ± 2.0 mm, the “Cellular immunity skin reaction” value [2, 9] was 8.6 ± 1.0 mm and the “Cellular immunity skin reaction” value [2, 10] was 3.1 ± 1.3 mm. The Ktreated/Kcontrol ([3]; dose 1 mg/kg subcutaneously) was 1.6, the Ktreated/Kcontrol ([3]; dose 100 mg/kg subcutaneously) was 2.0 and the “Humoral immunity hemagglutination titer (M ± S.E. log2)” value ([4]; dose 1 μg/site) was 12.3 ± 0.2 log2. The “Humoral immunity hemolysin titer (M ± S.E. log2)” value ([4]; dose 1 μg/site) was 7.3 ± 0.4 log2, the “Humoral immunity hemagglutination titer (M ± S.E. log2)” value ([4]; dose 10 μg/site) was 11.4 ± 0.5 log2 and the “Humoral immunity hemolysin titer (M ± S.E. log2)” value ([4]; dose 10 μg/site) was 7.8 ± 0.3 log2. The “Humoral immunity hemagglutination titer (M ± S.E. log2)” value ([4]; dose 100 μg/site) was 9.7 ± 0.4 log2 and the “Humoral immunity hemolysin titer (M ± S.E. log2)” value ([4]; dose 100 μg/site) was 7.2 ± 0.3 log2.

CCCCCCCCCCCCCCCCCC(=O)N[C@@H](C)C(=O)N[C@H](CCC(=O)N[C@@H](CCC[C@@H](N)C(=O)O)C(=O)NCC(=O)O)C(=O)O [CH3 (CH2)16 CO] was tested, and the Ktreated/Kcontrol ([3]; dose 0.1 mg/kg subcutaneously) was 1.2 and the Ktreated/Kcontrol ([3]; dose 1 mg/kg subcutaneously) was 1.5.

CCCCCCC(=O)N[C@@H](C)C(=O)N[C@H](CCC(=O)N[C@@H](CCC[C@@H](N)C(=O)O)C(=O)NCC(=O)O)C(=O)O [CH3 (CH2)5 CO; n=1] was tested, and the Ktreated/Kcontrol ([3]; dose 0.1 mg/kg subcutaneously) was 1.4 and the Ktreated/Kcontrol ([3]; dose 1 mg/kg subcutaneously) was 2.3.

In the case of C[C@H](N)C(=O)N[C@H](CCC(=O)N[C@@H](CCC[C@@H](N)C(=O)O)C(=O)NCC(=O)O)C(=O)O [H; n=1], the “Cellular immunity skin reaction” value [2, 8] is reported as 1.8 ± 0.7 mm, the “Cellular immunity skin reaction” value [2, 9] is reported as 8.9 ± 0.9 mm and the “Cellular immunity skin reaction” value [2, 10] is reported as 10.8 ± 3.3 mm. For the same compound, the Ktreated/Kcontrol ([3]; dose 1 mg/kg subcutaneously) was 0.8, the Ktreated/Kcontrol ([3]; dose 100 mg/kg subcutaneously) was 2.1 and the “Humoral immunity hemagglutination titer (M ± S.E. log2)” value ([4]; dose 1 μg/site) was 11.9 ± 0.5 log2. For the same compound, the “Humoral immunity hemolysin titer (M ± S.E. log2)” value ([4]; dose 1 μg/site) was 5.6 ± 0.5 log2, the “Humoral immunity hemagglutination titer (M ± S.E. log2)” value ([4]; dose 10 μg/site) was 12.3 ± 0.2 log2 and the “Humoral immunity hemolysin titer (M ± S.E. log2)” value ([4]; dose 10 μg/site) was 6.6 ± 0.3 log2. The “Humoral immunity hemagglutination titer (M ± S.E. log2)” value ([4]; dose 100 μg/site) was 12.0 ± 0.3 log2 and the “Humoral immunity hemolysin titer (M ± S.E. log2)” value ([4]; dose 100 μg/site) was 6.7 ± 0.5 log2.

C[C@H](NC(=O)[C@@H](C)O)C(=O)N[C@H](CCC(=O)N[C@@H](CCC[C@@H](N)C(=O)O)C(=O)NCC(=O)O)C(=O)O [D L D L D] was tested, and the “3H-thymidine uptake net cpm: av ± S.E.” value [1, 5] was 835 ± 64 cpm, the “3H-thymidine uptake net cpm: av ± S.E.” value [1, 6] was 1,486 ± 120 cpm and the “3H-thymidine uptake net cpm: av ± S.E.” value [1, 7] was 2,028 ± 89 cpm. For the same compound, the “3H-thymidine uptake net cpm: av ± S.E.” value ([1]; Test 2 (female BALB/C, 9 weeks; Table 7 and Table 8 Test 2), 1 μg/ml) was 2,741 ± 319 cpm, the “3H-thymidine uptake net cpm: av ± S.E.” value ([1]; Test 2 (female BALB/C, 9 weeks; Table 7 and Table 8 Test 2), 10 μg/ml) was 3,223 ± 402 cpm and the “3H-thymidine uptake net cpm: av ± S.E.” value ([1]; Test 2 (female BALB/C, 9 weeks; Table 7 and Table 8 Test 2), 100 μg/ml) was 3,666 ± 42 cpm. For the same compound, the “Cellular immunity skin reaction” value ([2]; dose 0.1 μg/site with ovalbumin in FIA) was 8.2 ± 2.8 mm, the “Cellular immunity skin reaction” value [2, 8] was 14.5 ± 2.1 mm and the “Cellular immunity skin reaction” value [2, 9] was 11.0 ± 1.3 mm. For the same compound, the “Cellular immunity skin reaction” value [2, 10] was 4.2 ± 1.7 mm, the “Humoral immunity hemagglutination titer (M ± S.E. log2)” value ([4]; dose 0.1 μg/site) was 9.9 ± 0.10 log2 and the “Humoral immunity hemolysin titer (M ± S.E. log2)” value ([4]; dose 0.1 μg/site) was 6.4 ± 0.76 log2. For the same compound, the “Humoral immunity hemagglutination titer (M ± S.E. log2)” value ([4]; dose 1 μg/site) was 11.5 ± 0.61 log2, the “Humoral immunity hemolysin titer (M ± S.E. log2)” value ([4]; dose 1 μg/site) was 7.7 ± 0.64 log2 and the “Humoral immunity hemagglutination titer (M ± S.E. log2)” value ([4]; dose 10 μg/site) was 12.2 ± 0.56 log2. The “Humoral immunity hemolysin titer (M ± S.E. log2)” value ([4]; dose 10 μg/site) was 7.1 ± 0.58 log2, the “Humoral immunity hemagglutination titer (M ± S.E. log2)” value ([4]; dose 100 μg/site) was 10.0 ± 1.01 log2 and the “Humoral immunity hemolysin titer (M ± S.E. log2)” value ([4]; dose 100 μg/site) was 5.9 ± 0.89 log2.

For C[C@H](NC(=O)CO)C(=O)N[C@H](CCC(=O)N[C@@H](CCC[C@@H](N)C(=O)O)C(=O)NCC(=O)O)C(=O)O [HOCH2 CO], the “3H-thymidine uptake net cpm: av ± S.E.” value [1, 5] was 1,120 ± 55 cpm, the “3H-thymidine uptake net cpm: av ± S.E.” value [1, 6] was 1,725 ± 86 cpm and the “3H-thymidine uptake net cpm: av ± S.E.” value [1, 7] was 2,605 ± 117 cpm. The “Cellular immunity skin reaction” value [2, 8] was 10.4 ± 2.4 mm, the “Cellular immunity skin reaction” value [2, 9] was 14.6 ± 1.1 mm and the “Cellular immunity skin reaction” value [2, 10] was 6.6 ± 1.1 mm. For the same compound, the Ktreated/Kcontrol ([3]; dose 1 mg/kg subcutaneously) was 0.9, the Ktreated/Kcontrol ([3]; dose 100 mg/kg subcutaneously) was 2.5 and the “Humoral immunity hemagglutination titer (M ± S.E. log2)” value ([4]; dose 1 μg/site) was 11.8 ± 0.5 log2. For the same compound, the “Humoral immunity hemolysin titer (M ± S.E. log2)” value ([4]; dose 1 μg/site) was 7.4 ± 0.6 log2, the “Humoral immunity hemagglutination titer (M ± S.E. log2)” value ([4]; dose 10 μg/site) was 12.4 ± 0.5 log2 and the “Humoral immunity hemolysin titer (M ± S.E. log2)” value ([4]; dose 10 μg/site) was 7.3 ± 0.5 log2. For the same compound, the “Humoral immunity hemagglutination titer (M ± S.E. log2)” value ([4]; dose 100 μg/site) was 10.8 ± 0.2 log2 and the “Humoral immunity hemolysin titer (M ± S.E. log2)” value ([4]; dose 100 μg/site) was 6.0 ± 0.2 log2.

In the case of C[C@H](NC(=O)[C@@H](C)O)C(=O)N[C@H](CCC(=O)N[C@@H](CCC[C@H](N)C(=O)O)C(=O)NCC(=O)O)C(=O)O [D L D L L], the “3H-thymidine uptake net cpm: av ± S.E.” value [1, 5] is reported as 742 ± 61 cpm, the “3H-thymidine uptake net cpm: av ± S.E.” value [1, 6] is reported as 1,003 ± 50 cpm and the “3H-thymidine uptake net cpm: av ± S.E.” value [1, 7] is reported as 1,271 ± 29 cpm. The “Stimulation Index” value ([1]; 1 μg/ml) was 1.9, the “Stimulation Index” value ([1]; 10 μg/ml) was 2.5 and the “Stimulation Index” value ([1]; 100 μg/ml) was 3.2. It also gave a Ktreated/Kcontrol ([3]; dose 1 mg/kg subcutaneously) of 0.9 and a Ktreated/Kcontrol ([3]; dose 100 mg/kg subcutaneously) of 2.7.

With CC(=O)N[C@H](CCC(=O)N[C@@H](CCC[C@@H](N)C(=O)O)C(=O)NCC(=O)O)C(=O)O [CH3 CO; n=0] the Ktreated/Kcontrol ([3]; dose 1 mg/kg subcutaneously, 1 mg/kg) was 1.5 and 1.2, the “Humoral immunity hemagglutination titer (M ± S.E. log2)” value ([4]; dose 1 μg/site) was 8.8 ± 0.3 log2 and the “Humoral immunity hemagglutination titer (M ± S.E. log2)” value ([4]; dose 10 μg/site) was 9.1 ± 0.4 log2.

Work on CCCCCCCCCCCC(=O)N[C@@H](C)C(=O)N[C@H](CCC(=O)N[C@@H](CCC[C@@H](N)C(=O)O)C(=O)NCC(=O)O)C(=O)O [CH3 (CH2)10 CO; n=1] yielded a Ktreated/Kcontrol ([3]; dose 0.1 mg/kg subcutaneously) of 1.6 and a Ktreated/Kcontrol ([3]; dose 1 mg/kg subcutaneously) of 1.7.

CC(=O)N[C@@H](C)C(=O)N[C@H](CCC(=O)N[C@@H](CCC[C@@H](N)C(=O)O)C(=O)NCC(=O)O)C(=O)O [CH3 CO; n=1] gave a Ktreated/Kcontrol ([3]; dose 1 mg/kg subcutaneously) of 1.1 and a Ktreated/Kcontrol ([3]; dose 100 mg/kg subcutaneously) of 2.0.
